Reference: the supplement of paper PMC9446081
The campaign covered roughly 39,000 compounds. About 220 (0.56%) showed activity. Some of the results follow.

Each molecule was assayed on Escherichia coli K-12 BW25113 (assay: relative growth (OD600 normalised to plate interquartile mean) (fraction); higher = less growth inhibition, active = 0.2 or less). Details: 50 µM; LB; incubation time: overnight (16-24 h).
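Further: static incubation at 37 °C against the wild-type strain, values averaged over two biological replicates.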

| SMILES | relative growth |
| --- | --- |
| C[C@H](CO)N1C[C@H](C)[C@H](CN(C)S(=O)(=O)c2cccc(F)c2)Oc2ncc(C#CC3CC3)cc2C1=O | inactive: 1 |
| Cc1noc(C)c1NC(=O)Nc1ccc2c(c1)C(=O)N([C@@H](C)CO)C[C@H](C)[C@@H](CN(C)CC1CCCCC1)OCCCC[C@H](C)O2 | inactive: 1.01 |
| CO[C@H]1CN(C)C(=O)c2ccc(NS(=O)(=O)c3cn(C)cn3)cc2OC[C@H](C)N(Cc2cccc(F)c2)C[C@H]1C | inactive: 0.972 |
| Cc1ccc(S(=O)(=O)N(C)C[C@@H]2Oc3ccc(NC(=O)CCCN(C)C)cc3C(=O)N([C@@H](C)CO)C[C@H]2C)cc1 | inactive: 1 |
| C[C@H](CO)N1C[C@H](C)[C@H](CN(C)Cc2ccncc2)Oc2ccc(NC(=O)CCCN(C)C)cc2C1=O | inactive: 0.993 |
| COc1ccc(CN(C)C[C@H]2OCCCC[C@H](C)Oc3ccc(NS(=O)(=O)c4ccc(Cl)cc4)cc3C(=O)N([C@@H](C)CO)C[C@@H]2C)cc1 | inactive: 0.993 |
| COc1cccc(S(=O)(=O)N(C)C[C@H]2Oc3ncc(C#CCC(C)C)cc3C(=O)N([C@H](C)CO)C[C@@H]2C)c1 | inactive: 1.05 |
| C[C@@H]1CN([C@H](C)CO)C(=O)Cc2cc(NS(=O)(=O)c3ccc(Cl)cc3)ccc2O[C@@H]1CN(C)Cc1ccc(Cl)c(Cl)c1 | inactive: 1 |
| Cc1ccc(S(=O)(=O)Nc2cccc3c2O[C@@H](CN(C)C(=O)NC(C)C)[C@@H](C)CN([C@H](C)CO)C3=O)cc1 | inactive: 0.99 |
| Fc1cnc(N2C[C@H]3COC[C@@H]3C2)nc1 | inactive: 0.979 |
| COc1ccc(NC(=O)N(C)C[C@H]2OCCCC[C@H](C)Oc3ccc(NC(=O)NC(C)C)cc3C(=O)N([C@@H](C)CO)C[C@H]2C)cc1 | inactive: 1.03 |
| Cc1noc(C)c1S(=O)(=O)N(C)C[C@@H]1Oc2ccc(NC(=O)C3CC3)cc2CC(=O)N([C@H](C)CO)C[C@@H]1C | inactive: 1 |
| Cc1noc(C)c1S(=O)(=O)Nc1ccc2c(c1)C(=O)N([C@@H](C)CO)C[C@H](C)[C@@H](CN(C)C(=O)NC1CCCCC1)O2 | inactive: 0.996 |
| C[C@@H]1CN([C@@H](C)CO)S(=O)(=O)c2ccc(C3=CCCCC3)cc2O[C@@H]1CN(C)C(=O)C1CCOCC1 | inactive: 1.02 |
| C[C@H](CO)N1C[C@H](C)[C@H](CN(C)CC2CC2)OCCCC[C@H](C)Oc2ccc(NC(=O)Nc3cccc4ccccc34)cc2C1=O | inactive: 0.972 |
| C[C@@H]1CN([C@H](C)CO)C(=O)c2cccc(NC(=O)CCCCCC(=O)Nc3ccccc3N)c2O[C@@H]1CN(C)Cc1ccc(-c2ccccc2)cc1 | inactive: 0.81 |
| C[C@@H]1CN([C@H](C)CO)C(=O)Cc2cc(NS(=O)(=O)c3ccccc3)ccc2O[C@H]1CN(C)S(=O)(=O)c1ccc(F)cc1 | inactive: 0.971 |
| CNC[C@H]1OCCCC[C@@H](C)Oc2ccc(NC(=O)Nc3ccc(C(F)(F)F)cc3)cc2C(=O)N([C@H](C)CO)C[C@@H]1C | inactive: 0.989 |
| C[C@H]1CN([C@@H](C)CO)C(=O)Cc2cc(NS(=O)(=O)c3ccc(F)cc3)ccc2O[C@@H]1CN(C)S(=O)(=O)c1cn(C)cn1 | inactive: 0.975 |
| Cc1noc(C)c1NC(=O)Nc1ccc2c(c1)C(=O)N([C@@H](C)CO)C[C@@H](C)[C@@H](CN(C)S(=O)(=O)c1cn(C)cn1)O2 | inactive: 0.992 |

| SMILES | relative growth |
| --- | --- |
| O=C(O)c1ccccc1 | inactive: 0.946 |
| NC(=O)NCC#Cc1ccc2c(c1)[C@]1(C(=O)N2)[C@H](c2ccccc2OCCO)N2[C@H](c3ccccc3)[C@H](c3ccccc3)OC(=O)[C@H]2[C@@H]1C(=O)N1CCCCCCC1 | inactive: 1.02 |
| Cc1ccc(S(=O)(=O)Nc2ccc3c(c2)C(=O)N([C@@H](C)CO)C[C@@H](C)[C@@H](CN(C)S(=O)(=O)c2cccs2)O3)cc1 | inactive: 1.05 |
| COc1ccc(NC(=O)N(C)C[C@H]2OCCCC[C@@H](C)Oc3ccc(NC(=O)Nc4cccc5ccccc45)cc3C(=O)N([C@@H](C)CO)C[C@H]2C)cc1 | inactive: 1.04 |
| C[C@@H]1CN([C@@H](C)CO)C(=O)CCCn2nncc2CO[C@@H]1CN(C)S(=O)(=O)c1cn(C)cn1 | inactive: 0.974 |
| Cc1noc(C)c1S(=O)(=O)Nc1ccc2c(c1)CC(=O)N([C@H](C)CO)C[C@@H](C)[C@H](CN(C)C(=O)NC(C)C)O2 | inactive: 1.03 |
| COc1ccc(S(=O)(=O)N(C)C[C@H]2Oc3ccc(NC(=O)c4ccncc4)cc3C(=O)N([C@@H](C)CO)C[C@@H]2C)cc1 | inactive: 0.99 |
| COc1ccc2nc3ccc(Cl)cc3c(SCCCN)c2c1 | inactive: 1.02 |
| COc1ccc(COC(=O)[C@H]2[C@H]3C(=O)N(Cc4ccc5c(c4)OCO5)C[C@]34C=C[C@]2(Br)O4)cc1 | inactive: 0.884 |
| C=CC[C@H](CC(=O)N(CCO)Cc1ccccc1)C(=O)N[C@H](COC(=O)[C@@H](CC=C)Cc1ccc(F)cc1)C(C)(C)C | inactive: 1.04 |
| CC(C)(C[C@H]1CN(S(=O)(=O)c2cccc(C(F)(F)F)c2)c2cc(-c3cc(F)cc(OC(F)F)c3)ccc2O1)C(=O)O | inactive: 1.01 |
| COc1ccc2c3c([nH]c2c1)[C@@H](CO)N(C[C@]13CCN(CC1)C(=O)Nc1ccc(cc1)F)C(=O)c1ccc(cc1)F | inactive: 0.996 |
| Cc1ccc(S(=O)(=O)N(C)C[C@H]2Oc3c(NS(C)(=O)=O)cccc3C(=O)N([C@@H](C)CO)C[C@@H]2C)cc1 | inactive: 1.01 |
| CCOC(=O)CCCCCC(=O)Nc1ccc2c(c1)C(=O)N([C@@H](C)CO)C[C@H](C)[C@H](CN(C)C(=O)c1ccccc1)OCCCC[C@H](C)O2 | inactive: 0.995 |
| C[C@H]1CCCCO[C@H](CN(C)S(=O)(=O)c2ccc(Cl)cc2)[C@@H](C)CN([C@@H](C)CO)C(=O)c2cc(NC(=O)NC3CCCCC3)ccc2O1 | inactive: 0.999 |
| C[C@H](CO)N1C[C@H](C)[C@H](CN(C)S(C)(=O)=O)Oc2c(NC(=O)Nc3ccccc3)cccc2C1=O | inactive: 0.973 |
| COc1ccccc1C#Cc1cnc2c(c1)C(=O)N([C@H](C)CO)C[C@@H](C)[C@@H](CN(C)C(=O)c1ccc3c(c1)OCO3)O2 | inactive: 1.01 |
| Cc1noc(C)c1NC(=O)N(C)C[C@H]1Oc2ccc(NS(=O)(=O)c3ccccc3)cc2CC(=O)N([C@H](C)CO)C[C@H]1C | inactive: 0.987 |
| C[C@@H]1CN([C@H](C)CO)C(=O)Cc2cc(NS(=O)(=O)c3cn(C)cn3)ccc2O[C@@H]1CN(C)Cc1ccc(C(=O)Nc2ccccc2N)cc1 | inactive: 1.01 |
| CO[C@H]1CN(C)C(=O)c2cc(NS(=O)(=O)CC(F)(F)F)ccc2OC[C@H](C)N(C(=O)NC(C)C)C[C@H]1C | inactive: 1 |

| SMILES | relative growth |
| --- | --- |
| C[C@@H]1CN([C@H](C)CO)C(=O)c2cc(NC(=O)Nc3ccc4c(c3)OCO4)ccc2O[C@@H](C)CCCCO[C@H]1CN(C)S(=O)(=O)c1ccc(F)cc1 | inactive: 0.998 |
| CC(=O)OC1CCC2(C)C(CCC3C2CC(=O)C2(C)C3CC3OC4(CCC(C)CO4)C(C)C32)C1 (stereo not given) | inactive: 0.982 |
| COc1ccc(NC(=O)Nc2ccc3c(c2)C(=O)N([C@H](C)CO)C[C@H](C)[C@H](CN(C)C(=O)Nc2ccc4c(c2)OCO4)OCCCC[C@H](C)O3)cc1 | inactive: 1.04 |
| C[C@@H]1CN([C@@H](C)CO)C(=O)c2c(c3ccccc3n2C)-c2ccccc2CO[C@@H]1CN(C)Cc1ccc2c(c1)OCCN2C | inactive: 1.02 |
| CSc1ccc2c(c1)N(CCC1CCCCN1C)c1ccccc1S2.Cl (stereo not given) | inactive: 1 |
| CCN1CCN(c2ccc(Nc3cc(N(C)C(=O)Nc4c(Cl)c(OC)cc(OC)c4Cl)ncn3)cc2)CC1 | inactive: 0.975 |
| CNC(=O)C(=O)NC[C@H]1OCCN1S(=O)(=O)c1ccccc1 | inactive: 1 |
| C[C@@H]1CN([C@H](C)CO)C(=O)c2cc(C#CCN(C)C)cnc2O[C@H]1CN(C)Cc1cccc(C(=O)O)c1 | inactive: 1.02 |
| C[C@@H]1CN([C@H](C)CO)C(=O)c2cc(C#C[C@@H](C)O)cnc2O[C@@H]1CN(C)C(=O)CN1CCOCC1 | inactive: 1.01 |
| O=C(NCC[C@@H]1CC[C@@H](NS(=O)(=O)c2cccc(F)c2)[C@H](CO)O1)C1CC1 | inactive: 0.992 |
| C[C@@H]1CN([C@@H](C)CO)C(=O)c2cc(-c3ccncc3)cnc2O[C@H]1CN(C)Cc1ccc(Oc2ccccc2)cc1 | inactive: 0.997 |
| COC(=O)C(CC#Cc1ccc2c(c1)[C@]1(C(=O)N2)[C@H](c2ccc(OCCO)cc2)N2[C@H](c3ccccc3)[C@H](c3ccccc3)OC(=O)[C@H]2[C@@H]1C(=O)Nc1nc2ccccc2s1)C(=O)OC | inactive: 1 |
| Oc1ccc(C2Oc3cc(O)cc(O)c3CC2O)cc1 (stereo not given) | inactive: 1.04 |
| C[C@H](CO)N1C[C@H](C)[C@H](CN(C)CC2CCCCC2)Oc2c(NC(=O)Nc3ccc(F)cc3)cccc2C1=O | inactive: 0.961 |
| Cc1noc(C)c1NC(=O)N(C)C[C@@H]1OCCCC[C@H](C)Oc2ccc(NS(=O)(=O)c3cccs3)cc2C(=O)N([C@@H](C)CO)C[C@H]1C | inactive: 1.01 |
| Clc1ccc(Cn2cccc2)cn1 | inactive: 0.992 |
| CCC(=O)NCCC1CCc2ccc3c(c21)CCO3 (stereo not given) | inactive: 1.09 |
| C[C@H]1CCCCO[C@H](CN(C)C(=O)Cc2ccccc2)[C@@H](C)CN([C@@H](C)CO)C(=O)c2cc(NC(=O)Nc3ccc(F)cc3)ccc2O1 | inactive: 1.04 |
| CC(=O)Nc1ccc(C(=O)O)cc1 | inactive: 1.02 |
| COc1ccccc1-c1ccc2c(c1)O[C@H](CN(C)C(=O)c1cccnc1)[C@@H](C)CN([C@@H](C)CO)S2(=O)=O | inactive: 0.915 |
